Usually % Inhibition stands for the relative decrease from the control value, in per cent.

Hit rate of the full screen: of about 150,000 compounds, about 540 (0.36%) showed an effect of 50% or more. The list shows a part of the results.

We go through 81 molecules from ChEMBL document CHEMBL4888484, “Replenishing the malaria drug discovery pipeline: Screening and hit evaluation of the MMV Hit Generation Library 1 (HGL1) against asexual blood stage Plasmodium falciparum ,using a nano luciferase reporter read-out” (2022).

The subject of this test is Plasmodium falciparum. The test can be described thus: Primary screen in NF54 nanoGlo assay, in single point, at 2uM, 72h; a lower Z score goes with more inhibition. The format is functional, Erythrocyte. Conditions: timepoint 72 hour.
With `COc1ccc(S(=O)(=O)N(CC(=O)N2CCNCC2)C[C@H](C)c2ccccc2)cc1OC`, the “% Inhibition” value was determined as 1% and the Z score is listed as -0.15.
In the same order, the values of `O=C(CCc1ccncc1)N[C@H]1CCN(c2ncc(C(F)(F)F)cc2Cl)C1` are -15% and 1.53.
Consider `CN(Cc1nc(-c2ccoc2)no1)[C@H]1CS(=O)(=O)c2ccc(Cl)cc21`, for which the “% Inhibition” value is on record as -12% and the Z score is reported as 1.62.
Turning to `CCOC(=O)c1sc2nc(-c3ccc(C(C)C)cc3)c(NCc3cccc(C)c3)n2c1C`, the “% Inhibition” value is on record as 0% and the Z score is 0.03.
Regarding `CNc1cc(C(=O)NC[C@@H]2COc3ccccc3C2)ccn1`, the “% Inhibition” value was -5% and the Z score worked out at 1.04.
On to `CC(C)N(CCO)C(=O)C[C@]1(c2cccc(F)c2)CC(=O)N(Cc2cccnc2)C1=O`, for which the “% Inhibition” value is reported as 1% and the Z score is -0.1.
For the molecule `Nc1nc(C2(NC(=O)C(F)(F)F)CCCCC2)cs1`, the “% Inhibition” value is on record as -2% and the Z score worked out at 0.22.
In the case of `CN1CC[C@@]2(CCC1=O)CN(CCCOCc1ccccc1)CCN2C`, the “% Inhibition” value is 1% and the Z score is -0.16.
As for `O=C(Nc1cc(C(F)(F)F)n[nH]1)[C@@H]1CCCc2ccccc21`, the “% Inhibition” value is -3% and the Z score was found to be 0.47.
In the same order, the values of `COc1ccc(C)cc1C1(CNC(=O)c2ccc(C(=O)O)nc2)CCOCC1` are -2% and 0.19.
In the same order, the values of `Cc1ccc(-n2ncc3c(=O)n(CC(=O)N4CCC(Cc5ccccc5)CC4)cnc32)c(C)c1` are -1% and 0.1.
For `CC[C@H]1CCCCN1C(=O)COc1ccc2c(c1)OCO2`, in that order: -11% and 2.11.
With `O=C(Cc1ccccc1OC(F)F)NC[C@H]1CS(=O)(=O)c2ccccc2O1`, the “% Inhibition” value was 3% and the Z score is reported as -0.54.
For `Cn1cccc1CN[C@H]1[C@H](O)[C@@H](N2CCC(Cc3ccccc3)CC2)[C@@H]2OC[C@H]1O2`, in that order: 10% and -1.25.
On to `CC(=O)c1c(C)nc2c(C#N)c(C)n(-c3ccc(Br)cc3)c2c1-c1ccccc1`, for which the “% Inhibition” value is given as -4% and the Z score is given as 0.77.
For `O=C1NC2(C(=O)N3CCC(Cc4ccccc4)CC3)CC3CC1C2C3` (configuration not stated), in that order: 1% and -0.18.
Take `CCC1(CC)CCN(C(=O)[C@@H]2NCc3ncncc32)C1`: the “% Inhibition” value is reported as -16% and the Z score was found to be 3.19.
As to `CC(C)(C)OC(=O)c1cc(C(=O)N[C@@H](CCc2ccccc2)C(F)F)n[nH]1`, the “% Inhibition” value is reported as 6% and the Z score is given as -1.16.
For `CC(F)(F)c1cccc(NC(=O)NCC(F)(F)F)c1`, in that order: -15% and 1.51.
For `Cc1[nH]c2ccc(CNC(=O)CCn3ccc(=O)[nH]c3=O)cc2c1C`, in that order: 3% and -0.33.
In the same order, the values of `CC(C)(C)c1nn2c(Cc3ccccc3)nnc2[nH]c1=O.CC(C)(C)c1nnc(NNC(=O)Cc2ccccc2)[nH]c1=O` are -30% and 3.48.
As to `C[C@@]1(C(=O)Nc2c[nH]c(C(N)=O)c2)CCOc2ccccc21`, the “% Inhibition” value is on record as 4% and the Z score is on record as -0.76.
For `CC1(CNS(=O)(=O)c2cccc(C(=O)N3C[C@H]4CCC[C@@H]3C4)c2)COC1`, in that order: -4% and 0.6.
Take `O=C(c1cnn(-c2ccccc2)n1)N1CCn2nccc2C1`: the “% Inhibition” value came out at 0% and the Z score was found to be 0.01.
For `CCN(CC)c1ccc2nnc(CCC(=O)NC3CCCCC3)n2n1`, in that order: -4% and 0.65.
For `COc1ccc(C(=O)N2CCOc3ccc(N(C)C)cc3C2)cc1`, in that order: 5% and -0.81.
In the same order, the values of `CC1c2ccccc2OC1C(=O)Nc1scnc1-c1ccccc1` (configuration not stated) are -8% and 0.8.
Regarding `CO[C@@H](CNC(=O)c1nc2n(n1)-c1ccccc1S(=O)(=O)N2)c1ccccc1`, the “% Inhibition” value was 34% and the Z score is listed as -4.36.
On to `CC(C)(C)CCCC(=O)N1CC[C@@]2(C1)NC(=O)NC2=O`, for which the “% Inhibition” value is -5% and the Z score is 1.07.
Turning to `CC(C)Cc1cc(C(=O)N2CC[C@@]3(CCCN(CC4CC4)C3=O)C2)on1`, the “% Inhibition” value is reported as -3% and the Z score was determined as 0.52.
For `CC(C)N1CC(=O)N(Cc2nn(C)c3ccccc23)C1=O`, in that order: -1% and 0.12.
As for `Cc1ccc(OCc2cccc(C(=O)N[C@](C)(C(=O)O)C3CC3)c2)cn1`, the “% Inhibition” value is -5% and the Z score came to 0.91.
Take `C=CCNC(=O)C1CCC(c2ccccc2)N(Cc2ccc(F)cc2)C1` (configuration not stated): the “% Inhibition” value stood at 15% and the Z score is -1.46.
In the same order, the values of `Cc1noc(C)c1CS(=O)(=O)[C@@H](C)C(=O)N(C)C1CCCCC1` are -2% and 0.29.
In the same order, the values of `Cn1cnnc1-c1nn(C)c2c1CN(C(=O)c1ccccc1F)CC2` are 4% and -0.56.
In the case of `CC(C)C(=O)N1CCC(NCCCOC2CCCCC2)CC1`, the “% Inhibition” value was -19% and the Z score came out at 1.71.
`CC1CC(NS(=O)(=O)c2cc(F)ccc2NCC(=O)N(C)C)C1` (configuration not stated): the “% Inhibition” value is recorded as -10% and the Z score stood at 1.4.
For `O=C(CN1CCS(=O)(=O)CC1)OCc1cccc(F)c1`, in that order: 8% and -1.48.
In the same order, the values of `CC(C)c1nnc(N(C)CC(C)(C)O)s1` are -5% and 0.72.
For `Cc1cc(C(=O)N2CCC(CCc3noc(N(C)C)n3)CC2)n(C)n1`, in that order: -2% and 0.32.
Regarding `CN(C)C(=O)c1ccc(CNC(=O)c2cccn2C2CC2)o1`, the “% Inhibition” value is -3% and the Z score was found to be 0.62.
Turning to `CCOc1cccc(CN(C(=O)OC(C)(C)C)C2CCC(C(=O)N3CCO[C@@H](COc4ccccc4)C3)CC2)c1` (some centres not stated), the “% Inhibition” value is listed as -7% and the Z score was 1.
With `C=CCN(C(=O)Cc1cccc2ccccc12)[C@H]1CCS(=O)(=O)C1`, the “% Inhibition” value was found to be 24% and the Z score is -3.07.
For `Cc1cccc(NC(=O)Cn2ccc3ccc(-c4nnc(C)o4)cc32)c1`, in that order: 6% and -0.76.
In the same order, the values of `O=C1OCc2c1cccc2S(=O)(=O)NCC1(C2CC2)CCC1` are 9% and -1.1.
For `CN1CCC2CCN(C(=O)Nc3ccc4c(c3)OCO4)C2C1` (configuration not stated), in that order: -4% and 0.61.
As to `O=C(COc1ccccc1)Nc1cc2ccccc2cc1NC(=O)COc1ccccc1`, the “% Inhibition” value is given as -8% and the Z score came to 1.06.
With `O=C(Cn1ncc(=O)c2ccccc21)Nc1cccc(S(=O)(=O)N2CCCC2)c1`, the “% Inhibition” value was -4% and the Z score was 0.53.
For the molecule `CN(C)c1ncc(CN2CCN(CCO)C(C)(C)C2)c2ccccc12`, the “% Inhibition” value turned out to be 16% and the Z score is -3.14.
For `Cc1cc(C)c2c(=O)n(CC(=O)Nc3ccc(F)cc3F)c(=O)n(-c3ccccc3)c2n1`, in that order: -10% and 1.32.
For `Cc1cccc(C(=O)Nc2ccc(N3CCNC(=O)C3)nc2)n1`, in that order: -21% and 2.8.
For the molecule `O=C(NCCN1CCc2c(Cl)cccc2C1)NCc1ccccn1`, the “% Inhibition” value was -7% and the Z score was found to be 0.68.
For `O=C(NCc1ccc(F)cc1)Nc1snnc1C(=O)NCc1ccc(F)cc1`, in that order: -30% and 3.54.
For `COC(=O)c1cn(CCNC(=O)Nc2cc(C)cc(OC)c2C)nn1`, in that order: -8% and 0.7.
As for `CC(=O)OCc1ccc(CN2CCC(=O)NC2=O)cc1`, the “% Inhibition” value was -11% and the Z score worked out at 1.99.
For `O=C(c1n[nH]c2ccccc12)N1CCCn2nc(-c3cccs3)cc2C1`, in that order: -1% and 0.21.
As to `CN(CCCn1ccnc1)C(=O)NCc1c(F)c(F)cc(F)c1F`, the “% Inhibition” value is -13% and the Z score was found to be 1.37.
With `CN(C)C(=O)NCC(=O)N1CC[C@@]2(CCCN(CC3CCC3)C2=O)C1`, the “% Inhibition” value amounted to 3% and the Z score was -0.35.
For `CC(C)n1cc(Br)cc1C(=O)NCc1ncnn1C(C)(C)C`, in that order: -3% and 0.51.
For `CCc1cccc(/N=C(\NCc2c(C)nn(C)c2C)NC(=O)c2ccc(OC)cc2)c1`, in that order: -6% and 1.08.
For `Cc1cc(C)c2[nH]c(CN3CCS(=O)(=O)CC3)cc(=O)c2c1`, in that order: 10% and -1.42.
Regarding `CN1C[C@H]2CC[C@@H](C1)N(Cc1coc(-c3ccccc3)n1)C2`, the “% Inhibition” value is listed as -7% and the Z score was 1.26.
In the case of `Cc1nc([C@@H]2CCCN2C(N)=O)n(C(C)(C)C)n1`, the “% Inhibition” value is reported as -12% and the Z score stood at 1.75.
Regarding `Cc1conc1CNc1ccc(C(F)(F)F)nn1`, the “% Inhibition” value is given as -1% and the Z score is listed as 0.07.
Consider `COc1ccc(/C=C/c2cc(C(F)(F)F)n[nH]2)cc1`, for which the “% Inhibition” value is -1% and the Z score was 0.05.
Turning to `O=C(Nc1ccc(F)cc1)[C@@H](c1ccc(F)cc1)N(C(=O)Cn1nnc2ccccc21)c1ccc(F)cc1`, the “% Inhibition” value worked out at 2% and the Z score is on record as -0.19.
In the same order, the values of `Cc1cc2c(c(-c3ccc(CN4CCCCC4)cn3)c1)O[C@@H](CN)C2` are 12% and -2.02.
For `O=C(Nc1ccc2c(c1)OCCO2)N1CCC[C@H]1c1cccs1`, in that order: -4% and 0.68.
As for `Cc1ccc(CCC(=O)Nc2c(C)noc2C)c(C)c1`, the “% Inhibition” value was -11% and the Z score is on record as 1.23.
For `Cc1nn(-c2ncnc3[nH]cnc23)c2c1[C@@H](c1c(F)cccc1F)CC(=O)N2`, the “% Inhibition” value was determined as 2% and the Z score is reported as -0.3.
For `Cc1nc(-c2ncc(C(=O)N[C@@H]3COC4(CCCC4)C3)c(O)n2)cs1`, in that order: 2% and -0.31.
On to `C=C(C)COc1cc(CNC[C@H]2CCc3nncn3C2)ccc1OC`, for which the “% Inhibition” value turned out to be 9% and the Z score is reported as -1.19.
For `CCN1C(=O)C2(CCN(Cc3ccc(C(F)(F)F)cc3)CC2)C[C@H]1C(=O)NCCOC`, the “% Inhibition” value is -9% and the Z score worked out at 1.05.
Turning to `CCOC(=O)c1c(NC(=O)NC(C)(C)CCS(C)(=O)=O)c(C#N)cn1CCOC`, the “% Inhibition” value is reported as -2% and the Z score turned out to be 0.25.
For `O=C(c1ccc(F)c(F)c1)N1Cc2cncnc2C1`, the “% Inhibition” value was -11% and the Z score came to 1.96.
For `COc1ccc(F)c(C(=O)N2CCN(CCO)[C@@H]3CS(=O)(=O)C[C@@H]32)c1F`, in that order: -1% and 0.29.
For the molecule `O=C(CC[C@H]1NC(=O)c2ccccc2NC1=O)Nc1cn[nH]c1`, the “% Inhibition” value was -1% and the Z score is given as 0.16.
For `O=S(=O)(Cc1ccccc1)N1CCC(Cc2c[nH]cn2)CC1`, in that order: -12% and 1.91.
In the same order, the values of `Cc1ccc(C(=O)N2CCC(c3nc4ccccc4o3)CC2)n1C` are -10% and 1.24.
For `C[C@@]1(C2CC2)COCCN1C(=O)Cc1csc(-c2nnc[nH]2)n1`, in that order: -6% and 1.16.
As for `Cc1nnsc1C(=O)NCc1ccc(-c2ccco2)o1`, the “% Inhibition” value is on record as 5% and the Z score is listed as -0.65.
